# Assay results as given in the supplement of paper PMC8728848.
# The other results are listed elsewhere or left out.
# B1: FGFR2-Fc (protein)
# chain: MVNVTDAISSGDDEDDTDGAEDFVSENSNNKRAPYWTNTEKMEKRLHAVPAANTVKFRCPAGGNPMPTMRWLKNGKEFKQEHRIGGYKVRNQHWSLIMESVVPSDKGNYTCVVENEYGSINHTYHLDVVERSPHRPILQAGLPANASTVVGGDVEFVCKVYSDAQPHIQWIKHVEKNGSKYGPDGLPYLKVLKHSGINSSNAEVLALFNVTEADAGEYICKVSNYIGQANQSAWLTVLPKQQAPGREKEITASPDYLETRPLEQKLISEEDLAANDILDYKDDDDKV
# Legend:
# Assay in all cases: glycan array binding signal (z-score within array); higher = stronger binding
# Details in all cases: glycan notation: IUPAC condensed, linker removed
# [1] = target: Gal(b1-4)GlcNAc(b1-3)Gal(b1-4)GlcNAc(b1-2)[Gal(b1-4)GlcNAc(b1-3)Gal(b1-4)GlcNAc(b1-6)]Man(a1-6)[Gal(b1-4)GlcNAc(b1-3)Gal(b1-4)GlcNAc(b1-2)Man(a1-3)]Man(b1-4)GlcNAc(b1-4)GlcNAc
# In short: (§1)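 From the Consortium for Functional Glycomics database, 3228 arrays were curated, keeping only those whose protein sequence was available. Binding is given as a within-array Z-score averaged across arrays sharing a protein sequence and across linkers. Negative Z-scores can be read as non-binding.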
# [2] = target: Gal(b1-4)GlcNAc(b1-3)Gal(b1-4)GlcNAc(b1-2)[Gal(b1-4)GlcNAc(b1-3)Gal(b1-4)GlcNAc(b1-6)]Man(a1-6)[Gal(b1-4)GlcNAc(b1-3)Gal(b1-4)GlcNAc(b1-2)Man(a1-3)]Man(b1-4)GlcNAc(b1-4)[Fuc(a1-6)]GlcNAc
# In short: as §1
# [3] = target: Gal(b1-4)GlcNAc(b1-3)Gal(b1-4)GlcNAc(b1-3)Gal(b1-4)GlcNAc
# In short: as §1
# [4] = target: Gal(b1-4)GlcNAc(b1-3)Gal(b1-4)GlcNAc(b1-3)Gal(b1-4)GlcNAc(b1-2)Man(a1-3)[Gal(b1-4)GlcNAc(b1-3)Gal(b1-4)GlcNAc(b1-3)Gal(b1-4)GlcNAc(b1-2)Man(a1-6)]Man(b1-4)GlcNAc(b1-4)GlcNAc
# In short: as §1
# [5] = target: Gal(b1-4)GlcNAc(b1-3)Gal(b1-4)GlcNAc(b1-3)Gal(b1-4)GlcNAc(b1-2)Man(a1-3)[Gal(b1-4)GlcNAc(b1-3)Gal(b1-4)GlcNAc(b1-3)Gal(b1-4)GlcNAc(b1-2)Man(a1-6)]Man(b1-4)GlcNAc(b1-4)[Fuc(a1-6)]GlcNAc
# In short: as §1
# [6] = target: Gal(b1-4)GlcNAc(b1-3)Gal(b1-4)GlcNAc(b1-3)Gal(b1-4)GlcNAc(b1-2)[Gal(b1-4)GlcNAc(b1-3)Gal(b1-4)GlcNAc(b1-3)Gal(b1-4)GlcNAc(b1-6)]Man(a1-6)[Gal(b1-4)GlcNAc(b1-3)Gal(b1-4)GlcNAc(b1-3)Gal(b1-4)GlcNAc(b1-2)Man(a1-3)]Man(b1-4)GlcNAc(b1-4)[Fuc(a1-6)]GlcNAc
# In short: as §1
# [7] = target: Gal(b1-4)GlcNAc(b1-3)Gal(b1-4)GlcNAc(b1-3)Gal(b1-4)GlcNAc(b1-3)Gal(b1-4)GlcNAc(b1-2)Man(a1-3)[Gal(b1-4)GlcNAc(b1-3)Gal(b1-4)GlcNAc(b1-3)Gal(b1-4)GlcNAc(b1-3)Gal(b1-4)GlcNAc(b1-2)Man(a1-6)]Man(b1-4)GlcNAc(b1-4)GlcNAc
# In short: as §1
# [8] = target: Gal(b1-4)GlcNAc(b1-3)Gal(b1-4)GlcNAc(b1-3)Gal(b1-4)GlcNAc(b1-3)Gal(b1-4)GlcNAc(b1-2)Man(a1-3)[Gal(b1-4)GlcNAc(b1-3)Gal(b1-4)GlcNAc(b1-3)Gal(b1-4)GlcNAc(b1-3)Gal(b1-4)GlcNAc(b1-2)Man(a1-6)]Man(b1-4)GlcNAc(b1-4)[Fuc(a1-6)]GlcNAc
# In short: as §1
# [9] = target: Gal(b1-4)GlcNAc(b1-3)Gal(b1-4)GlcNAc(b1-3)Gal(b1-4)GlcNAc(b1-3)Gal(b1-4)GlcNAc(b1-2)[Gal(b1-4)GlcNAc(b1-3)Gal(b1-4)GlcNAc(b1-3)Gal(b1-4)GlcNAc(b1-3)Gal(b1-4)GlcNAc(b1-6)]Man(a1-6)[Gal(b1-4)GlcNAc(b1-3)Gal(b1-4)GlcNAc(b1-3)Gal(b1-4)GlcNAc(b1-3)Gal(b1-4)GlcNAc(b1-2)Man(a1-3)]Man(b1-4)GlcNAc(b1-4)[Fuc(a1-6)]GlcNAc
# In short: as §1
# [10] = target: Gal(b1-4)GlcNAc(b1-3)Gal(b1-4)GlcNAc(b1-3)Gal(b1-4)GlcNAc(b1-3)Gal(b1-4)GlcNAc(b1-3)Gal(b1-4)GlcNAc(b1-2)Man(a1-3)[Gal(b1-4)GlcNAc(b1-3)Gal(b1-4)GlcNAc(b1-3)Gal(b1-4)GlcNAc(b1-3)Gal(b1-4)GlcNAc(b1-3)Gal(b1-4)GlcNAc(b1-2)Man(a1-6)]Man(b1-4)GlcNAc(b1-4)GlcNAc
# In short: as §1
# [11] = target: Gal(b1-4)GlcNAc(b1-3)Gal(b1-4)GlcNAc(b1-3)Gal(b1-4)GlcNAc(b1-3)Gal(b1-4)GlcNAc(b1-3)Gal(b1-4)GlcNAc(b1-2)Man(a1-3)[Gal(b1-4)GlcNAc(b1-3)Gal(b1-4)GlcNAc(b1-3)Gal(b1-4)GlcNAc(b1-3)Gal(b1-4)GlcNAc(b1-3)Gal(b1-4)GlcNAc(b1-2)Man(a1-6)]Man(b1-4)GlcNAc(b1-4)[Fuc(a1-6)]GlcNAc
# In short: as §1
# [12] = target: Gal(b1-4)GlcNAc(b1-3)Gal(b1-4)GlcNAc(b1-3)Gal(b1-4)GlcNAc(b1-3)Gal(b1-4)GlcNAc(b1-3)Gal(b1-4)GlcNAc(b1-2)[Gal(b1-4)GlcNAc(b1-3)Gal(b1-4)GlcNAc(b1-3)Gal(b1-4)GlcNAc(b1-3)Gal(b1-4)GlcNAc(b1-3)Gal(b1-4)GlcNAc(b1-6)]Man(a1-6)[Gal(b1-4)GlcNAc(b1-3)Gal(b1-4)GlcNAc(b1-3)Gal(b1-4)GlcNAc(b1-3)Gal(b1-4)GlcNAc(b1-3)Gal(b1-4)GlcNAc(b1-2)Man(a1-3)]Man(b1-4)GlcNAc(b1-4)[Fuc(a1-6)]GlcNAc
# In short: as §1
# [13] = target: Gal(b1-4)GlcNAc(b1-3)Gal(b1-4)GlcNAc(b1-3)Gal(b1-4)GlcNAc(b1-3)Gal(b1-4)GlcNAc(b1-3)Gal(b1-4)GlcNAc(b1-3)Gal(b1-4)GlcNAc(b1-2)Man(a1-3)[Gal(b1-4)GlcNAc(b1-3)Gal(b1-4)GlcNAc(b1-3)Gal(b1-4)GlcNAc(b1-3)Gal(b1-4)GlcNAc(b1-3)Gal(b1-4)GlcNAc(b1-3)Gal(b1-4)GlcNAc(b1-2)Man(a1-6)]Man(b1-4)GlcNAc(b1-4)GlcNAc
# In short: as §1
# [14] = target: Gal(b1-4)GlcNAc(b1-3)Gal(b1-4)GlcNAc(b1-3)GalNAc
# In short: as §1
# [15] = target: Gal(b1-4)GlcNAc(b1-3)Gal(b1-4)GlcNAc(b1-3)[Gal(b1-4)GlcNAc(b1-3)Gal(b1-4)GlcNAc(b1-6)]GalNAc
# In short: as §1
# [16] = target: Gal(b1-4)GlcNAc(b1-3)Gal(b1-4)GlcNAc(b1-6)[Gal(b1-3)]GalNAc
# In short: as §1
# [17] = target: Gal(b1-4)GlcNAc(b1-3)Gal(b1-4)[Fuc(a1-3)]GlcNAc(b1-3)Gal(b1-4)[Fuc(a1-3)]GlcNAc
# In short: as §1
# [18] = target: Gal(b1-4)GlcNAc(b1-3)GalNAc
# In short: as §1
# [19] = target: Gal(b1-4)GlcNAc(b1-3)[Fuc(a1-3)GlcNAc(b1-6)]Gal(b1-4)Glc
# In short: as §1
# [20] = target: Gal(b1-4)GlcNAc(b1-3)[Gal(b1-4)GlcNAc(b1-6)]Gal(b1-4)GlcNAc
# In short: as §1
# [21] = target: Gal(b1-4)GlcNAc(b1-3)[GlcNAc(b1-6)]Gal(b1-4)GlcNAc
# In short: as §1
# [22] = target: Gal(b1-4)GlcNAc(b1-6)Gal(b1-4)GlcNAc
# In short: as §1
# [23] = target: Gal(b1-4)GlcNAc(b1-6)GalNAc
# In short: as §1
# [24] = target: Gal(b1-4)GlcNAc(b1-6)[Gal(b1-3)]GalNAc
# In short: as §1
# [25] = target: Gal(b1-4)GlcNAc(b1-6)[Gal(b1-4)GlcNAc(b1-3)]GalNAc
# In short: as §1
# Gal(b1-4)GlcNAc6P = target: Gal(b1-4)GlcNAc6P
# In short: as §1
# Gal(b1-6)Gal = target: Gal(b1-6)Gal
# In short: as §1
# Gal3S(b1-3)GalNAc = target: Gal3S(b1-3)GalNAc
# In short: as §1
# Gal3S(b1-3)GlcNAc = target: Gal3S(b1-3)GlcNAc
# In short: as §1
# [26] = target: Gal3S(b1-3)[Fuc(a1-4)]GlcNAc
# In short: as §1
# Gal3S(b1-4)Glc = target: Gal3S(b1-4)Glc
# In short: as §1
# Gal3S(b1-4)Glc6S = target: Gal3S(b1-4)Glc6S
# In short: as §1
# Gal3S(b1-4)GlcNAc = target: Gal3S(b1-4)GlcNAc
# In short: as §1
# [27] = target: Gal3S(b1-4)[Fuc(a1-3)]Glc6S
# In short: as §1
# [28] = target: Gal3S(b1-4)[Fuc(a1-3)]GlcNAc
# In short: as §1
# [29] = target: Gal3S(b1-4)[Fuc(a1-3)]GlcNAc6S
# In short: as §1
# Gal3S4S(b1-4)GlcNAc = target: Gal3S4S(b1-4)GlcNAc
# In short: as §1
binder,measurement,setting,value
B1,glycan array binding signal (z-score),[1],-0.015
same,glycan array binding signal (z-score),[2],0.686
same,glycan array binding signal (z-score),[3],-0.19
same,glycan array binding signal (z-score),[4],0.197
same,glycan array binding signal (z-score),[5],-0.115
same,glycan array binding signal (z-score),[6],0.515
same,glycan array binding signal (z-score),[7],1.4
same,glycan array binding signal (z-score),[8],0.178
same,glycan array binding signal (z-score),[9],-0.07
same,glycan array binding signal (z-score),[10],-0.013
same,glycan array binding signal (z-score),[11],-0.034
same,glycan array binding signal (z-score),[12],-0.087
same,glycan array binding signal (z-score),[13],-0.198
same,glycan array binding signal (z-score),[14],0.243
same,glycan array binding signal (z-score),[15],0.9
same,glycan array binding signal (z-score),[16],0.362
same,glycan array binding signal (z-score),[17],0.128
same,glycan array binding signal (z-score),[18],0.027
same,glycan array binding signal (z-score),[19],-0.139
same,glycan array binding signal (z-score),[20],-0.674
same,glycan array binding signal (z-score),[21],-0.277
same,glycan array binding signal (z-score),[22],0.09
same,glycan array binding signal (z-score),[23],0.447
same,glycan array binding signal (z-score),[24],0.229
same,glycan array binding signal (z-score),[25],-0.073
same,glycan array binding signal (z-score),Gal(b1-4)GlcNAc6P,0.573
same,glycan array binding signal (z-score),Gal(b1-6)Gal,-0.771
same,glycan array binding signal (z-score),Gal3S(b1-3)GalNAc,0.111
same,glycan array binding signal (z-score),Gal3S(b1-3)GlcNAc,0.343
same,glycan array binding signal (z-score),[26],-0.152
same,glycan array binding signal (z-score),Gal3S(b1-4)Glc,0.236
same,glycan array binding signal (z-score),Gal3S(b1-4)Glc6S,0.012
same,glycan array binding signal (z-score),Gal3S(b1-4)GlcNAc,-0.089
same,glycan array binding signal (z-score),[27],1.35
same,glycan array binding signal (z-score),[28],-0.04
same,glycan array binding signal (z-score),[29],-0.045
same,glycan array binding signal (z-score),Gal3S4S(b1-4)GlcNAc,-0.708
